These results are taken from PubChem BioAssay AID1645887 (National Center for Advancing Translational Sciences (NCATS), 2021).

Where “and” joins values, the source holds several entries; their conditions need not be identical. Identical values can stand only once. The whole screen tested about 16,000 compounds, of which about 40 (0.2%) were called active. Another 1% or so got no clear call; they are omitted. The call rests on the fitted dose curve; in most records, active means well fitted activation curve with a large enough effect; inconclusive means small, poorly fitted or top-dose-only effect, or another doubt; inactive means no such curve, though single readings can be large or run the other way. The list shows a part of the results.
On the % scale 0 is the no-effect control and ±100 the full control effect; potency means the concentration at half of the fitted maximal effect.

Chain of UniProt Q8WZA2 (Q8WZA2 whole entry, looked up): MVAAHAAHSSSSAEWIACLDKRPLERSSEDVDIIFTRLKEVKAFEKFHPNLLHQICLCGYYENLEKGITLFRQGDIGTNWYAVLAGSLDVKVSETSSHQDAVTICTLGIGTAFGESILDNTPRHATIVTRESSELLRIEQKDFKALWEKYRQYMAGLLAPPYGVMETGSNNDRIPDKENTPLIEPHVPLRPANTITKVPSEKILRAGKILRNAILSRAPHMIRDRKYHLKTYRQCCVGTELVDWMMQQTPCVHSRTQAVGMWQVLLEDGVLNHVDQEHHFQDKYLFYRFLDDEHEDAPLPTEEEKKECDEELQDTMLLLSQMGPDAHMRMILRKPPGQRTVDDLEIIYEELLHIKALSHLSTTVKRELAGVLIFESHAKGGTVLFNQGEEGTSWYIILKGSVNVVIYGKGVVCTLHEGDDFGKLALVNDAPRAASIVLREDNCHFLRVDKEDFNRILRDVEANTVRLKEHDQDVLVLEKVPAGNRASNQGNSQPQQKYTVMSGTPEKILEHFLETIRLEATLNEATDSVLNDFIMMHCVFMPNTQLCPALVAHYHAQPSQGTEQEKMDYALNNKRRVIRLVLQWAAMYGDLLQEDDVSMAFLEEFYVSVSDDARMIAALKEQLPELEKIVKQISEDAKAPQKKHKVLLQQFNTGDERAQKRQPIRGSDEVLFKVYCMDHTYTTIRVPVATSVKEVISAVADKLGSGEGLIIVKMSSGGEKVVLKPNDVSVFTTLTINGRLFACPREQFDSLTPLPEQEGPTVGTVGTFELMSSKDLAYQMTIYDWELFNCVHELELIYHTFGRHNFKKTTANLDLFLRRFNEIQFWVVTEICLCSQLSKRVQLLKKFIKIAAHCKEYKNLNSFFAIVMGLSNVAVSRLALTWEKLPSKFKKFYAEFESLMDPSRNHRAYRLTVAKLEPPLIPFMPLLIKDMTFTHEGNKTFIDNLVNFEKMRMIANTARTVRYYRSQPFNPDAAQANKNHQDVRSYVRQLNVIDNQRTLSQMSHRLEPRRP

The target in the experiment is Rap guanine nucleotide exchange factor 4 (Homo sapiens) (UniProt Q8WZA2). The experiment in a line: Validation qHTS for agonist of cAMP-regulated guanine nucleotide exchange factor 4 (EPAC2).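 On activation: exchange makes BODIPY-GDP fluorescence drop when released from Rap1B; series mostly up to about 150 µM.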 The settings on record: EPAC2 Rap1B BODIPY-GDP exchange, fluorescence; activation: hits give high values. The method, boiled down:
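Signal normalized against 6.5 mM cAMP as agonist control. Mix of EPAC2 (100 nM), RAP1B-BODIPY-GDP (250 nM) and GDP (50 uM) was read kinetically at 480/540 nm, every 5 min over 30 min, after 5 min room-temperature incubation with compound.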
On the technique in general: Quantitative high-throughput screening tests each substance at several concentrations.
As to `OCCN1C[C@H](O)[C@@H](O)[C@H](O)[C@H]1CO`, the activation was inactive: 6.71%.
The same measure, in the same setting: to `CCC(=O)NC1CCc2cccc(OC)c2C1` (stereo not given) belongs inactive: 5.86%; to `Cc1ccsc1CN1CCc2nnc(CCNC(=O)c3ccc(F)cc3)n2CC1`, inactive: -4.66%.
On to `COc1cc(-c2c(OC)cccc2OC)cc2c1OCCN(C(=O)CCC(=O)c1ccc(F)cc1)C2`, for which the activation was inactive: -17.2%.
As for `C/C=C/c1ccc2oc(-c3ccc(O)cc3)c(C)c2c1`, the activation was inactive: -7.49%.
`OC(c1ccc2c(c1)CN(Cc1cccn1-c1ncccn1)CCO2)C1CCCCC1` (stereo not given): the activation was inactive: -21.5%.
The same measure, in the same setting: to `O=C1CC[C@H](C(=O)N2CCCCC2)N1` belongs inactive: -14.9%; to `O=C(O)/C=C/c1cnc[nH]1`, inactive: -7.03%.
Still for that read-out and setting: to `N[C@@H](CSCCCO)C(=O)O` belongs inactive: 8.38%.
On to `COc1ccc(CN2CCCC(n3cc(C(=O)NC4CCCC4)nn3)C2)c(O)c1` (stereo not given), for which the activation is inactive: -13.2%.
Still for that read-out and setting: to `CC(C)CN1CCC(=O)N(CCOc2ccccc2)CC1` belongs inactive: -21.8%.
As for `COc1cc(OC)c(C(=O)CCCCN2CCC3(CC2)NC(=O)NC3=O)cc1NS(=O)(=O)c1ccc(C(F)(F)F)cc1`, the activation was inactive: -16.7% and inactive: -13.1%.
For the molecule `CC1(C)SC2C(NC(=O)Cc3ccccc3)C(=O)N2C1C(=O)O` (stereo not given), the activation was inactive: 0.593%.
As to `c1ccc2nc3ccccc3cc2c1`, the activation is inactive: -8.02%.
The same measure, in the same setting: to `Cc1cc2ccccc2cn1` belongs inactive: -19.9%; to `CC[C@@]12CCCN3CCc4c(n(c5ccccc45)[C@](O)(C(=O)OC)C1)[C@H]32`, inactive: -4.79%; to `O=C1CCC[C@@H]2C[C@@]3(C[C@@H]4CCN1[C@H]24)Nc1cc(Cl)ccc1NC3=NC1CCCCC1`, inactive: 4.65%.
Still for that read-out and setting: to `N#C[C@H]1C[C@H]2C[C@@H]2N1C(=O)[C@@H](N)C12CC3CC(CC(O)(C3)C1)C2` belongs inactive: -14.2%.
On the same count and under the same terms, to `O=C1[C@H](Cc2ccccc2)NCCCC[C@@H](c2ccco2)N1Cc1ccccc1` belongs inactive: -35.7%; to `O=C1OC(OC(=O)c2cccnc2Nc2cccc(C(F)(F)F)c2)c2ccccc21` (stereo not given), inactive: -1.51%; to `COC(=O)C1=C(C)NC(C)=C(C(=O)OC(C)C)C1c1cccc2nonc12` (stereo not given), inactive: -23.1% and inactive: -5.57%.
On to `CC1(C)CC[C@]2(C(=O)O)CC[C@]3(C)C(=CCC4[C@@]5(C)CC[C@H](O)C(C)(C)[C@@H]5CC[C@]43C)C2C1` (stereo not given in full), for which the activation was inactive: 1.41%.
On the same count and under the same terms, to `COCCn1c(=O)c(C)nc2cnc(N(C)C)nc21` belongs inactive: 0.525%; to `CO[C@H]1[C@H](NC(=O)c2ccsc2)c2ccccc2C12CCN(Cc1cccn1-c1ccccn1)CC2`, inactive: -11.6%.
On to `CCOC(=O)Nc1ccc(NCc2ccc(F)cc2)nc1N`, for which the Potency is active: 112 µM.
Consider `Cc1cc(=O)[nH]c2ccc(O)cc12`, for which the activation was inactive: -9.77%.
The same measure, in the same setting: to `O=c1cnc2cnc(N3CCOCC3)nc2n1C[C@H]1CCCO1` belongs inactive: -24.5%.
On to `O=C(Nc1nccs1)[C@@H]1CC=C[C@@H]2CCN(Cc3ccccc3)C(=O)[C@@H]21`, for which the activation was inactive: -23.8%.
Still for that read-out and setting: to `CCOC(=O)N1CCC(N2CCOc3ccc(CN4CCC(O)(c5cccnc5)CC4)cc3C2)CC1` belongs inactive: 1.87%; to `NCCC[C@@H](N)C(=O)O`, inactive: 8.2%.
Still for that read-out and setting: to `COCC(=O)Nc1c(I)c(C(=O)NCC(O)CO)c(I)c(C(=O)N(C)CC(O)CO)c1I` (stereo not given) belongs inactive: -21%; to `COc1ccc(-n2c(=O)c(-c3ccc(F)cc3)nc3cnc(OC)nc32)cc1`, inactive: -1.69%; to `CN1CCN(c2cc3c(cc2F)c(=O)c(C(=O)O)cn3-c2ccc(F)cc2)CC1`, inactive: -1.27%.
In the case of `O=C(O)CCCC[C@@H]1SC[C@@H]2NC(=O)N[C@@H]21`, the activation was inactive: -3.1%.
The same measure, in the same setting: to `C[N+]1(C)CCc2cc3c(cc2[C@@H]1[C@@H]1C(=O)Oc2c1ccc1c2OCO1)OCO3` belongs inactive: 0.251% and inactive: 1.12%; to `COc1cc(/C=C/C(=O)c2cccs2)cc(OC)c1OC`, inactive: -4.29%.
Same read-out and setting: to `Cn1cc(-c2nc3cnc(N4CCNCC4)nc3n(C)c2=O)c2ccccc21` belongs inactive: 4.82%; to `C#CCN(Cc1nc(N2CCOCC2)c2ccc(Cl)cc2n1)Cc1ccco1`, inactive: -3.91%.
Still for that read-out and setting: to `Cc1cc(C(=O)NCc2nc(-c3cccc(NC(=O)c4cc(C)oc4C)c3)oc2C)nc(C)n1` belongs inactive: -13.6%; to `O=C(N[C@H]1CCC(=O)N(CCSc2ccc(Br)cc2)CC1)OCc1ccccc1`, inactive: -16.1%.
As to `CC(C)=CCC1C(=O)N(c2ccccc2)N(c2ccccc2)C1=O`, the activation is inactive: -9.15%.
Consider `COc1ccc2[nH]cc(CCNc3cc(-c4cccnc4)ncn3)c2c1`, for which the activation is inactive: -0.765%.
Still for that read-out and setting: to `Cc1ccc(CN2CCc3nnc(C(NC(=O)c4ccoc4)C(C)C)n3CC2)cc1C` (stereo not given) belongs inactive: 5.23%; to `CN1CCN(c2ncc3nc(-c4cccc(C#N)c4)c(=O)n(Cc4ccc(F)cc4)c3n2)CC1`, inactive: -15.6%.
The same measure, in the same setting: to `N[C@@H](CSSC[C@H](N)C(=O)O)C(=O)O` belongs inactive: -3.29%; to `CN(C)c1ccc(C(=O)N2CCCC(Cn3cc(C(=O)N4CCCC4)nn3)C2)cc1` (stereo not given), inactive: -6.08%; to `CC1COc2c(N3CCN(C)CC3)c(F)cc3c(=O)c(C(=O)O)cn1c23` (stereo not given), inactive: -2.84% [middle of 4 runs].
As to `CS(=O)(=O)NC(=O)CCC/C=C\C[C@H]1C(=O)C[C@@H](O)[C@@H]1/C=C/[C@H](O)COc1ccccc1`, the activation was inactive: -3.5%.
The same measure, in the same setting: to `NC(=O)C[C@H](NC(=O)Cc1ccc(O)cc1O)C(=O)O` belongs inactive: -8.03% and inactive: 11.8%; to `O=C(O)COc1ccc(C(=O)c2cccs2)c(Cl)c1Cl`, inactive: -6.64% and inactive: -5.98%; to `COc1cccc(O)c1O`, inactive: -7.15%.
`COc1ccccc1CNc1nc(-c2ccc(N(C)C)cc2)nc2ccccc12`: the activation was inactive: 9.82%.
On the same count and under the same terms, to `c1cncc(CNc2ccnc(-c3ccc4c(c3)OCO4)n2)c1` belongs inactive: -5.21%; to `COc1ccc(CNC(=O)[C@@H]2CC=C[C@@H]3CCN(Cc4ccc(OC)c(OC)c4)C(=O)[C@@H]32)cc1`, inactive: -14.4%.
As to `COc1ccc(CCn2nnnc2C2(c3ccc(C)cc3)CC2)cc1`, the activation is inactive: -53.3%.
